# Reference: PubChem BioAssay AID686979 (National Center for Advancing Translational Sciences (NCATS), 2013)
# Several values for one entry are separate records, joined by “and”; a condition that tells them apart may be missing. Equal entries are not always repeated. Hit rate of the full screen: of about 420,000 compounds, about 50,000 (12%) were called active. The shares of active, inactive and inconclusive entries below differ from those in the screen. The call rests on the fitted dose curve; in most records, active means well fitted inhibition curve with a large enough effect; inconclusive means small, poorly fitted or top-dose-only effect; inactive means flat fitted curve, though single readings scatter. Potencies of inconclusive entries are left out as doubtful fits.
# Experiment: qHTS for Inhibitors of human tyrosyl-DNA phosphodiesterase 1 (TDP1): qHTS in cells in presence of CPT; further: nearly all actives have a fitted effect of over 55% in size
# Details: chicken DT40 Tdp1-/-;hTDP1 cells + 20 nM CPT, ATP luminescence, 48 h; activity change, negative = growth inhibition: at 46.2 µM (top of the series)
# Outline: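 Cell growth measured by CellTiter-Glo luminescence after a minimum 48 h, 37 C compound exposure with 20 nM CPT in Tdp1-knockout DT40 cells stably expressing hTDP1, seeded 400/well; qHTS titration format.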
# On the % scale 0 is the no-effect control and ±100 the full control effect; potency means the concentration at half of the fitted maximal effect; tags describe the fitted curve by direction and shape.
Structure (SMILES),Potency,"activity change, negative = growth inhibition"
COc1cc(-c2noc(C)c2/C=C/c2ccc(N)cc2)cc(OC)c1OC,active: 631 nM and active: 1.16 µM,
CC1(C)Cc2ccccc2-c2nnc(SCC(=O)Nc3nc4ccccc4s3)n21,"inconclusive [inhibitor, single point]",
CCCCc1nc(NCCN)c(C#N)c2c1CSC(C)(C)C2,active: 20.6 µM,
COCCNC(=S)N(C)[C@H]1C[C@H]2c3cc(-c4ccccc4)ccc3CCN2C(=O)[C@H]1[C@H](C)O,"inconclusive [inhibitor, single point]",
CSc1ccc(C(O)c2ncc(-c3ccccc3F)[nH]2)cc1 (centres undefined),active: 29.1 µM,
COc1cccc(NC(=O)CSc2nc3ccccc3c(=O)n2C)c1,active: 16.4 µM,
COc1ccc(CCNC(=O)c2ccc3c(c2)N=C(C)c2ccccc2S3)cc1OC,"inconclusive [inhibitor, partial curve, poor fit]",
CCN1C(=S)N[C@@H](CCc2ccccc2)C(C(=O)OC)=C1C,"inconclusive [inhibitor, single point]",
O=c1[nH]c2cc(Cl)ccc2n(CCNc2ncc(C(F)(F)F)cc2Cl)c1=O,inactive,
O=C(Cc1ccccc1)NCC(=O)OCC(=O)c1cccc2ccccc12,,inconclusive: -32.2% [inhibitor]
CCc1nnc(NC(=O)C(=O)NCCOC(=O)c2ccccc2Cl)s1,"inconclusive [inhibitor, single point]",
COc1ccc(/C=c2\s/c(=C/C(=O)c3ccc(C)cc3)[nH]c2=O)cc1OC,"inconclusive [inhibitor, single point]",
COc1ccc(C2(CNC(=O)Cc3ccc(OC)c(OC)c3)CCCC2)cc1,"inconclusive [inhibitor, single point]",
COc1cc(OC)cc(-c2sc3ccc(OC)cc3c2C#CCCO)c1,"inconclusive [inhibitor, single point]",
CC(=O)NC(Cc1cc(C)ccc1C)C(=O)N1CCN(C(=O)c2ccc([N+](=O)[O-])cc2)CC1 (centres undefined),inactive,
COc1ccc(NC(=O)NC(C)c2c(-n3cccc3)sc(C)c2C)cc1OC (centres undefined),active: 16.4 µM,
O=C(COc1ccc(F)cc1Cl)Nc1ccc(N2CCOCC2)cc1N1CCOCC1,"inconclusive [inhibitor, single point]",
O=C(Oc1ccc(N(Cc2cccs2)C2=NS(=O)(=O)c3ccccc32)cc1)c1ccccc1F,inactive,
Fc1cnc(N2CCOCC2)nc1N1CCOCC1,"inconclusive [inhibitor, single point]",
CCOc1ccc(C(=O)Nc2ccc(C(=O)N3CCOCC3)cc2)c(OCC)c1,"inconclusive [inhibitor, single point]",
CCOC(=O)N1CCC(NC(=O)CS(=O)Cc2nc(-c3ccc(C)cc3)oc2C)CC1 (centres undefined),"inconclusive [inhibitor, partial curve]",
CC(=O)Nc1ccc(C(=O)COC(=O)CN2C(=O)NC3(CCCCC3C)C2=O)cc1 (centres undefined),inactive,

Structure (SMILES),Potency,"activity change, negative = growth inhibition"
Cc1c(NC(=O)/C(C#N)=C/c2ccc(-c3ccccc3Cl)o2)c(=O)n(-c2ccccc2)n1C,"inconclusive [inhibitor, single point]",
Brc1cccc(-c2nc3c4ccccc4ccn3c2Cc2ccccc2)c1,active: 20.6 µM,
CC(=O)Nc1cccc(NC(=S)Nc2ccc(F)c(Cl)c2)c1,active: 16.4 µM,
N#CCC1c2ccccc2CCN1C(=O)Nc1cccc(C(F)(F)F)c1 (centres undefined),"inconclusive [inhibitor, partial curve]",
CCN(C)c1ccc(/C=N\n2nnnc2N)cc1,active: 7.31 µM,
Cc1ccoc1C(=O)N1CCCC(CCC(=O)N2CCN(c3ccccn3)CC2)C1 (centres undefined),"inconclusive [inhibitor, single point]",
CC(=O)c1ccccc1NC(=O)CSc1nc2ccccc2c(=O)n1CCCN1CCOCC1,"inconclusive [inhibitor, single point]",
CN(C)C/C(Cl)=C(\Cl)c1ccccc1,active: 5.17 µM,
COc1ccc(OC)c(CN2CCN(CCc3ccccc3)C(CCO)C2)c1 (centres undefined),active: 11.6 µM,
CCOC(=O)C=C(OC(=O)c1ccc(OC)cc1)c1ccccc1,inactive,
CC1=CC2=NC(=O)/C(=C\c3cccn3CCOc3ccccc3)C(=N)N2O1,"inconclusive [inhibitor, single point]",
Cc1cc(-c2nnc(CCC(=O)N(CC3CCC3)CC3CCCO3)o2)no1 (centres undefined),"inconclusive [inhibitor, single point]",
Cc1c(Cc2ccccc2)sc(/N=C/c2ccc3ccccc3c2)c1C(N)=O,active: 0.731 µM,
COc1ccc2oc(=Nc3cc(F)ccc3F)c(C(N)=O)cc2c1,active: 4.11 µM,
COc1ccc(Cl)cc1C(=O)CSc1nnnn1C1CCCCC1,"inconclusive [inhibitor, single point]",
Cc1ccccc1OCC(=O)NCC(c1cccs1)N1CCOCC1 (centres undefined),"inconclusive [inhibitor, single point]",
CC1c2cc3c(cc2CCN1C(=O)c1ccc(Br)cc1)OCCCO3 (centres undefined),active: 16.4 µM,
CCOc1ccc(CN(C)C(=O)Cc2c[nH]c3ccccc23)cc1,"inconclusive [inhibitor, single point]",
CC(C)c1[nH]nc2c1C(c1ccc(OC(=O)c3ccco3)cc1)C(C#N)=C(N)O2 (centres undefined),"inconclusive [inhibitor, partial curve, poor fit]",
Cc1cccc(NC(=O)COc2cccc3c2CCN(C)C3=O)c1C,"inconclusive [inhibitor, single point]",
COc1cc(C(=O)N/C(=C\c2cn(C)c3ccccc23)C(=O)NCCCN2CCOCC2)cc(OC)c1OC,"inconclusive [inhibitor, single point]",
CC1CCCCC1NC(=O)C1CCN(C(=O)c2sccc2-n2cccc2)CC1 (centres undefined),"inconclusive [inhibitor, single point]",
